Some of the results follow. Sequences were assembled here from the parent chain. Values near 0.05 are background.
B1: TEV protease; numbered along this chain (parent)
chain: MGESLFKGPRDYNPISSSICHLTNESDGHTTSLYGIGFGPFIITNKHLFRRNNGTLVVQSLHGVFKVKDTTTLQQHLVDGRDMIIIRMPKDFPPFPQKLKFREPQREERICLVTTNFQTKSMSSMVSDTSCTFPSGDGIFWKHWIQTKDGQCGSPLVSTRDGFIVGIHSASNFTNTNNYFTSVPKNFMELLTNQEAQQWVSGWRLNADSVLWGGHKVFMVKPEEPFQPVKEATQL

Variants of: B1
Assay: raw area under fraction-flipped curve 0-4 h after induction (AUC4h, not background-subtracted), DNA-recorder readout of cleavage of the substrate (dimensionless); higher = more cleavage of the substrate by the protease variant
Details: temperature: 34 °C; time window: 0-4 h after rhamnose induction
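Also: Bxb1 expression induced with 0.2% (w/v) L-rhamnose at OD600 near 0.5, cultures sampled hourly, flipped fraction per protease–substrate barcode pair counted by paired-end Illumina sequencing.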

Row | Variant | area with substrate ENLYFCS | area with substrate ENLYFES | area with substrate ENLYFFS | area with substrate ENLYFIS | area with substrate ENLYFKS | area with substrate ENLYFLS | area with substrate ENLYFMS | area with substrate ENLYFNS | area with substrate ENLYFPS | area with substrate ENLYFVS | area with substrate ENLYFYS | area with substrate ENLYFDS | area with substrate ENLYFHS | area with substrate ENLYFSS | area with substrate ENLYFTS | area with substrate ENLYFRS | area with substrate ENLYFGS | area with substrate ENLYFWS
1 | MGESLFKGPRDYNPISSSICHLTNESDGHTTSLYGIGFGPFIITNKHLFRRNNGTLVVQSLHGVFKVKDTTTLQQHLVDGRDMIIIRMPKDFPPFPQKLKFREPQREERICLVTTNFQTKSMSSMVSDTSCTFPSGDGIFWKHWIQTKDGQCGSPLVSTRDGFIVGIHSASNFTNTNNYFTSVPKNFMELLTNQEAQQWVSGWRLNADSVLWGGHKVFMVKPEEQFQPVKEATQL [P225Q] | 0.0621 | 0.0742 | 0.0739 | 0.0597 | 0.0591 | 0.0607 | 0.0596 | 0.0565 | 0.0608 | 0.0614 | 0.0456 | – | – | – | – | – | – | –
2 | MGESLFKGPRDYNPISSSICHLTNESDGHTTSLYGIGFGPFIITNKHLFRRNNGTLVVQSLHGVFKVKDTTTLQQHLVDGRDMIIIRMPKDFPPFPQKLKFREPQREERICLVTTNFQTKSMSSMVSDTSCTFPSGDGIFWKHWIQTKDGQCGSPLVSTRDGFIVGIHSASNFTNTNNYFTSVPKNFMELLTNQEAQQWVSGWRLNADSVLWGGHKVFMVWPEEPFQPVKEATQL [K221W] | 0.0578 | – | – | 0.0686 | – | 0.0799 | 0.0541 | 0.0569 | 0.0682 | – | 0.0648 | 0.0584 | 0.0665 | 0.0616 | 0.0438 | – | – | –
3 | MGESVFKGPRDYNPISSSICHLTNESDGHTTSLYGIGFGPFIITNKHLFRRNNGTLVVQSLHGVFKVKDTTTLQQHLVDGRDMIIIRMPKDFPPFPQKLKFREPQREERICLVTTNFQTKSMSSMVSDTSCTFPSGDGIFWKHWIQTKDGQCGSPLVSTRDGFIVGIHSASNFTNTNNYFTSVPKNFMELLTNQEAQQWVSGWRLNADSVLWGGHKVFMVKPEEPFQPVKEATQL [L5V] | – | 0.0524 | 0.0753 | 0.0567 | – | – | – | – | – | 0.0625 | 0.0647 | 0.0532 | – | 0.063 | – | 0.0508 | – | –
4 | MGESNFKGPRDYNPISSSICHLTNESDGHTTSLYGIGFGPFIITNKHLFRRNNGTLVVQSLHGVFKVKDTTTLQQHLVDGRDMIIIRMPKDFPPFPQKLKFREPQREERICLVTTNFQTKSMSSMVSDTSCTFPSGDGIFWKHWIQTKDGQCGSPLVSTRDGFIVGIHSASNFTNTNNYFTSVPKNFMELLTNQEAQQWVSGWRLNADSVLWGGHKVFMVKPEEPFQPVKEATQL [L5N] | – | 0.0844 | 0.05 | 0.0569 | – | – | 0.0766 | – | 0.0576 | – | 0.0588 | 0.074 | – | – | – | 0.0844 | 0.0424 | –
5 | MGESLFKGPRDYNPISSSICHLTNESDGHTTSLYGIGFGPFIITNKHLFRRNNGTLVVQSLHGVFKVKDTTTLQQHLVDGRDMIIIRMPKDFPPFPQKLKFREPQREERICLVTTNFQTKSMSSMVSDTSCTFPSGDGIFWKHWIQTKDGQCGSPLVSTRDGFIVGIHSASNFTNTNNYFTSVPKNFMELLTNQEAQQWVSGWRLNADSVLWGGHKVFMVKPEEPFQKVKEATQL [P228K] | 0.0676 | 0.0731 | – | 0.0557 | 0.0509 | 0.0632 | 0.0815 | – | – | – | – | – | – | 0.0506 | 0.0671 | – | – | 0.0515
6 | MLESLFKGPRDYNPISSSICHLTNESDGHTTSLYGIGFGPFIITNKHLFRRNNGTLVVQSLHGVFKVKDTTTLQQHLVDGRDMIIIRMPKDFPPFPQKLKFREPQREERICLVTTNFQTKSMSSMVSDTSCTFPSGDGIFWKHWIQTKDGQCGSPLVSTRDGFIVGIHSASNFTNTNNYFTSVPKNFMELLTNQEAQQWVSGWRLNADSVLWGGHKVFMVKPEEPFQPVKEATQL [G2L] | – | 0.0252 | 0.0391 | 0.0455 | 0.065 | – | – | 0.0516 | 0.0609 | – | – | 0.0522 | 0.0535 | – | 0.0543 | 0.0548 | – | 0.0439
7 | MGESLFKGPRDYNPISSSICHLTNESDGHTTSLYGIGFGPFIITNKHLFRRNNGTLVVQSLHGVFKVKDTTTLQQHLVDGRDMIIIRMPKDFPPFPQKLKFREPQREERICLVTTNFQTKSMSSMVSDTSCTFPSGDGIFWKHWIQTKDGQCGSPLVSTRDGFIVGIHSASNFTNTNNYFTSVPKNFMELLTNQEAQQWVSGWRLNADSVLWGGHKVFMVKPEEPRQPVKEATQL [F226R] | 0.0523 | 0.0591 | 0.0789 | 0.0533 | – | 0.0583 | 0.0447 | 0.061 | 0.0601 | – | – | – | – | – | 0.0409 | 0.0434 | 0.0665 | –
8 | MGESLFKGPRDYNPISSSICHLTNESDGHTTSLYGIGFGPFIITNKHLFRRNNGTLVVQSLHGVFKVKDTTTLQQHLVDGRDMIIIRMPKDFPPFPQKLKFREPQREERICLVTTNFQTKSMSSMVSDTSCTFPSGDGIFWKHWIQTKDGQCGSPLVSTRDGFIVGIHSASNFTNTNNYFTSVPKNFMELLTNQEAQQWVSGWRLNADSVLWGGHKVFMVKPEEPTQPVKEATQL [F226T] | 0.0421 | – | – | 0.046 | 0.0628 | – | 0.0712 | 0.0645 | – | – | – | – | 0.06 | – | 0.0444 | – | – | 0.0536
9 | MGESLFKGPRDYNPISSSICHLTNESDGHTTSLYGIGFGPFIITNKHLFRRNNGTLVVQSLHGVFKVKDTTTLQQHLVDGRDMIIIRMPKDFPPFPQKLKFREPQREERICLVTTNFQTKSMSSMVSDTSCTFPSGDGIFWKHWIQTKDGQCGSPLVSTRDGFIVGIHSASNFTNTNNYFTSVPKNFMELLTNQEAQQWVSGWRLNADSVLWGGHKVFMVKPEEPFQPVQEATQL [K230Q] | 0.0539 | 0.0693 | 0.064 | 0.0592 | 0.0781 | – | 0.074 | 0.0696 | – | 0.0799 | 0.0456 | – | – | 0.0522 | 0.0639 | 0.0627 | – | 0.0507
